Results on 42 molecules are retold here after ChEMBL document CHEMBL4888484, “Replenishing the malaria drug discovery pipeline: Screening and hit evaluation of the MMV Hit Generation Library 1 (HGL1) against asexual blood stage Plasmodium falciparum ,using a nano luciferase reporter read-out” (2022).

Screen size: about 150,000 compounds; about 540 (0.36%) showed an effect of 50% or more. The list shows a part of the results.

In the experiment the test system is Plasmodium falciparum. Nature of the experiment: Primary screen in NF54 nanoGlo assay, in single point, at 2uM, 72h; a lower Z score goes with more inhibition. The experiment is classed as functional, Erythrocyte. The note with it: timepoint 72 hour.
Regarding `Cn1nc(C(=O)NCCN2CCCOC2=O)cc1-c1ccccc1`, the “% Inhibition” value is listed as -24% and the Z score is 4.73.

For the molecule `O=C(CCc1ccccc1)Nc1ccc(-n2nn[nH]c2=O)cc1`, the “% Inhibition” value is 38% and the Z score is recorded as -1.49.

For the molecule `Cc1cccc(NC(=O)[C@@H]2CCCCN2C(=O)OC(C)(C)C)c1C`, the “% Inhibition” value stood at 4% and the Z score is -0.63.

With `Cc1c(C#N)c(-c2cccnc2)c(C)n1C`, the “% Inhibition” value was -3% and the Z score was 0.54.

Take `COc1ccc2c(c1)OC(C)(C)CN(C(=O)Nc1ccncn1)C2`: the “% Inhibition” value is listed as 2% and the Z score is on record as -0.16.

As to `O=C(NCc1ccccc1Cl)c1csc(-c2ccnc(N3CCOCC3)c2)n1`, the “% Inhibition” value is listed as 4% and the Z score is reported as -0.65.

Turning to `Cc1noc([C@@H]2CN(C(=O)C3CCCCC3)CCCN2CC(C)C)n1`, the “% Inhibition” value was 0% and the Z score is -0.04.

For the molecule `O=C(NCCN1CCOCC1)c1cc2c(ccc3ccccc32)o1`, the “% Inhibition” value is given as -6% and the Z score came out at 1.25.

Regarding `COc1ccc(OC)c2c1cc1n2CC(C)(C(=O)NC2CCCC2)N(CC(C)c2ccccc2)C1=O` (centres undefined), the “% Inhibition” value stood at 1% and the Z score is given as -0.12.

Take `COc1ccc(Cc2nnc(C3CCN(CC(=O)NCc4ccccc4)CC3)s2)cc1`: the “% Inhibition” value is listed as -14% and the Z score worked out at 2.7.

For the molecule `CN(C)c1cccc(S(=O)(=O)NCC#N)c1`, the “% Inhibition” value was 9% and the Z score is listed as -1.12.

For the molecule `CCc1ccc(-c2c(-c3ccccc3)ncn2CCN2CCC[C@H](CO)C2)o1`, the “% Inhibition” value is -2% and the Z score was 0.22.

`CCc1nsc(N2CCCN(C)C[C@@H]2CC)n1`: the “% Inhibition” value is reported as -5% and the Z score was 0.59.

For `CC(C)Cc1cc(CNCc2ccc(Cl)s2)on1`, the “% Inhibition” value is -1% and the Z score came to 0.19.

Consider `O=C(Nc1ccc2c(c1)C(O)=Nc1cccnc1O2)C1CCCCC1`, for which the “% Inhibition” value was 25% and the Z score is -3.72.

Regarding `CN(Cc1cnn(-c2ccccc2)n1)c1ncnc2[nH]ncc12`, the “% Inhibition” value is given as 33% and the Z score is recorded as -0.4.

Regarding `CC12CCC(C(=O)Nc3cccnc3)(C(=O)C1=O)C2(C)C` (centres undefined), the “% Inhibition” value is listed as 0% and the Z score is recorded as 0.

`CO[C@@H](C)c1ccc(-c2cc(C(=O)O)cc(S(=O)(=O)N3CCOCC3)c2)cc1`: the “% Inhibition” value is -17% and the Z score came out at 1.88.

In the case of `C[C@]1(CNC(=O)c2cc(F)cc(Br)c2)CCC(=O)N1`, the “% Inhibition” value is 5% and the Z score is -0.72.

On to `CN(C)C(=O)c1n[nH]c2c1CN(C(=O)c1cccc(Br)c1)CC2`, for which the “% Inhibition” value is 13% and the Z score was -2.03.

With `COc1cc(C(=O)N2CCO[C@H](C(=O)N3CCCC3)C2)cc(OC)c1OC`, the “% Inhibition” value is listed as -8% and the Z score was found to be 1.02.

Regarding `NC(=O)CCOc1ccccc1NCc1cc2cc(F)ccc2o1`, the “% Inhibition” value worked out at 5% and the Z score is reported as -0.48.

Take `O=C(NCCC(c1ccccc1)c1ccccc1)c1cn(C[C@H]2CCCO2)nn1`: the “% Inhibition” value was -14% and the Z score was 1.8.

Consider `CC(C)CN(Cc1cc(NC(=O)c2cccs2)ccc1N(C)C)C(=O)C(C)(C)C`, for which the “% Inhibition” value worked out at 11% and the Z score was -2.14.

Take `O=C(Cn1nc(N2CCCCCC2)c2ccccc2c1=O)Nc1ccc2c(c1)OCO2`: the “% Inhibition” value is -10% and the Z score was 1.5.

For the molecule `CCn1cc(S(=O)(=O)N(C)[C@H](C)c2cccnc2)cn1`, the “% Inhibition” value was -5% and the Z score was found to be 0.76.

In the case of `O=C(NC[C@@]12CCC[C@@H]1OCC2)c1ccc2n[nH]c(=O)n2c1`, the “% Inhibition” value was -7% and the Z score stood at 0.91.

In the case of `Cc1ccc(CNC(=O)[C@@H]2CC=CCC2)cn1`, the “% Inhibition” value was -3% and the Z score was 0.5.

With `C[C@@H](CN(C)CCO)NCCc1cccc(F)c1`, the “% Inhibition” value is -13% and the Z score was determined as 1.19.

As for `CCN1CCN(c2ncc(-c3cc(=O)[nH]c(N4CCN(c5ccc(Cl)cc5)CC4)n3)c(C)n2)CC1`, the “% Inhibition” value is recorded as -11% and the Z score turned out to be 1.68.

As to `FC1(F)CC(COc2nccs2)C1`, the “% Inhibition” value amounted to 2% and the Z score is -0.37.

As to `O=c1c(CNc2ccccc2)cc2cccc3c2n1CCC3`, the “% Inhibition” value came to 5% and the Z score is recorded as -0.65.

`Cn1cc(-c2nc3cc(F)c(F)cc3c(=O)[nH]2)ccc1=O`: the “% Inhibition” value is -12% and the Z score came out at 2.34.

Turning to `CC(C)c1ccc(NC(=O)N2CCc3nc(N4CCN(C5CCCCC5)CC4)nc(N(C)C)c3C2)cc1`, the “% Inhibition” value is listed as -2% and the Z score worked out at 0.31.

Consider `COC1C2CC3CN(C(=O)NCc4cnccc4C)C1C3C2` (centres undefined), for which the “% Inhibition” value was -2% and the Z score is listed as 0.27.

As to `CCC1CN(C(=O)c2cnn(C3CCCCC3)c2)CC1N(C)C` (centres undefined), the “% Inhibition” value is listed as -14% and the Z score was determined as 1.64.

Turning to `CNC(=O)C1CCCC1NC(=O)N[C@H](C)c1ccc(Cl)cc1Cl` (some centres undefined), the “% Inhibition” value was 0% and the Z score is reported as -0.02.

Regarding `Cc1nc(Nc2ccccc2)[nH]c(=O)c1CCc1ccccc1`, the “% Inhibition” value stood at 14% and the Z score is given as -1.7.

Regarding `CCOC(=O)[C@H]1CCCN(C(=O)c2cnc(-c3cccc(C)c3)nc2N(C)Cc2ccccc2)C1`, the “% Inhibition” value is reported as -1% and the Z score is 0.13.

On to `Cc1ccnc(NC(=O)c2ccc(Oc3ccccc3)cc2)c1`, for which the “% Inhibition” value is given as -5% and the Z score was 0.69.

With `CCCOc1ccccc1CCNC(=O)N1CC[C@H](NC(C)=O)C1`, the “% Inhibition” value was -2% and the Z score came out at 0.35.

In the case of `CC(C)CC1OCCCC1NC(=O)c1cccn(C)c1=O` (centres undefined), the “% Inhibition” value was -7% and the Z score is given as 0.6.
